# In all, about 81,000 sequences were measured (“one-hybrid fitness for binding parS DNA”: median about -0.17, highest 2% from about 0.51 on). The list shows a part of the results.
# B1: Caulobacter ParB omega fusion; a variant is named by its letters at X, in order, B8GW30 (parent)
# chain: MESVVVGEPGMSEGRRGLGRGLSALLGEVDAAPAQAPGEQLGGSREAPIEILQRNPDQPRRTFREEDLEDLSNSIREKGVLQPILVRPSPDTAGEYQIVAGERAWRAAQRAGLKTVPIMVRELDDLAVLEIGIIENVQRADLNVLEEALSYKVLMEKFERTQENIAQTIGKSXSHVANXMRLLXLPDEVQSYLVSGELTAXHARAIAAAADPVALAKQIIEGGLSVRETEALARKAPNLSAGKSKGGRPPRVKDTDTQALESDLSSVLGLDVSIDHRGSTGTLTITYATLEQLDDLCNRLTRGI
# Variants of: B1
# Test: one-hybrid fitness for binding parS DNA (scaled: cognate 1, non-cognate 0); higher = stronger binding
# Conditions: with parS DNA site
# Method in brief: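 Caulobacter ParB libraries with four specificity codons randomised were screened by bacterial one-hybrid selection in the E. coli USO strain, using a HIS3 reporter whose site lies 19 bp from the promoter. Selection ran for 48 hours at 37°C on M9 lacking histidine, with 0.1 mM IPTG and 5 mM 3-AT. Plasmids were Illumina-sequenced before and after selection, three replicate libraries were pooled, and variants with under 10 reads were dropped. Fitness is the log change in each variant's read ratio to wild type, rescaled against the cognate and non-cognate sites.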
row,Variant,one-hybrid fitness for binding parS DNA
1,QCWC,≤ 0.2
2,HYWG,≤ 0.2
3,ACPA,≤ 0.2
4,HLIF,≤ 0.2
5,EARQ,≤ 0.2
6,SIDG,≤ 0.2
7,QGHC,≤ 0.2
8,YPWV,≤ 0.2
9,NIHC,≤ 0.2
10,AAWT,≤ 0.2
11,CKGG,≤ 0.2
12,IDKR,≤ 0.2
13,DKFG,≤ 0.2
14,ACRP,≤ 0.2
15,TSIP,≤ 0.2
16,LRMF,≤ 0.2
17,GPKL,≤ 0.2
18,YRLT,≤ 0.2
19,INQT,≤ 0.2
20,SRSP,≤ 0.2
21,RNGW,≤ 0.2
22,SYAD,≤ 0.2
23,STDG,≤ 0.2
24,LLHQ,≤ 0.2
25,KPIF,≤ 0.2
26,YPFT,≤ 0.2

row,Variant,one-hybrid fitness for binding parS DNA
1,SSTT,≤ 0.2
2,CQEI,≤ 0.2
3,PHRI,≤ 0.2
4,SFRV,≤ 0.2
5,WVGM,≤ 0.2
6,RLGD,≤ 0.2
7,FTNN,≤ 0.2
8,RMRR,≤ 0.2
9,DAGN,≤ 0.2
10,MDAM,≤ 0.2
11,PQAG,≤ 0.2
12,VGKH,≤ 0.2
13,RSTC,0.97
14,TRMM,≤ 0.2
15,TCHT,≤ 0.2
16,RMTA,0.6
17,KLPN,≤ 0.2
18,QYER,≤ 0.2
19,AWLA,≤ 0.2
20,TMKR,≤ 0.2
21,ASNP,≤ 0.2
22,QYWH,≤ 0.2
23,VVPW,≤ 0.2
24,SCVQ,≤ 0.2
25,ELMI,≤ 0.2
26,RQHF,0.231

row,Variant,one-hybrid fitness for binding parS DNA
1,GWDN,≤ 0.2
2,FTGY,≤ 0.2
3,LCSD,≤ 0.2
4,CGAQ,≤ 0.2
5,NYKP,≤ 0.2
6,KRCF,≤ 0.2
7,QSLN,≤ 0.2
8,EIRL,≤ 0.2
9,QILL,≤ 0.2
10,VQYL,≤ 0.2
11,TPMY,≤ 0.2
12,MYDR,≤ 0.2
13,TIAW,≤ 0.2
14,GHTC,≤ 0.2
15,RWSA,0.429
16,SRCI,≤ 0.2
17,YLIF,≤ 0.2
18,PELK,≤ 0.2
19,PFNT,≤ 0.2
20,AVTW,≤ 0.2
21,SWAD,≤ 0.2
22,VRYA,≤ 0.2
23,TNSM,≤ 0.2
24,TGIL,≤ 0.2
25,CRRI,≤ 0.2
26,YLMA,≤ 0.2

row,Variant,one-hybrid fitness for binding parS DNA
1,ESGV,≤ 0.2
2,RMYD,≤ 0.2
3,KKAY,≤ 0.2
4,ARRF,≤ 0.2
5,YGGR,≤ 0.2
6,NRNY,≤ 0.2
7,YIMS,≤ 0.2
8,PYRW,≤ 0.2
9,SLYG,≤ 0.2
10,MDGS,≤ 0.2
11,CKED,≤ 0.2
12,GSTQ,≤ 0.2
13,CTKL,≤ 0.2
14,YEER,≤ 0.2
15,PRHS,≤ 0.2
16,DPNA,≤ 0.2
17,MDTG,≤ 0.2
18,QTKN,≤ 0.2
19,CEQR,≤ 0.2
20,LVLR,≤ 0.2
21,WHAF,≤ 0.2
22,KMTD,≤ 0.2
23,THHN,≤ 0.2
24,PMMR,≤ 0.2
25,AIQC,≤ 0.2
26,YQSG,≤ 0.2

row,Variant,one-hybrid fitness for binding parS DNA
1,LDNL,≤ 0.2
2,YEAT,≤ 0.2
3,SGWR,≤ 0.2
4,WIRS,≤ 0.2
5,NHIC,≤ 0.2
6,QCAA,≤ 0.2
7,GRFL,≤ 0.2
8,GVAY,≤ 0.2
9,FLVS,≤ 0.2
10,VPAL,≤ 0.2
11,VTNV,≤ 0.2
12,CRGW,≤ 0.2
13,EDLF,≤ 0.2
14,TSPE,≤ 0.2
15,PQYS,≤ 0.2
16,INYR,≤ 0.2
17,ILLN,≤ 0.2
18,YPYA,≤ 0.2
19,KVDT,≤ 0.2
20,QCTQ,≤ 0.2
21,QHCK,≤ 0.2
22,RPVT,≤ 0.2
23,DFTR,≤ 0.2
24,RNHE,≤ 0.2
25,SSIG,≤ 0.2
26,WQMS,≤ 0.2

row,Variant,one-hybrid fitness for binding parS DNA
1,YMFS,≤ 0.2
2,QDYG,≤ 0.2
3,CNVT,≤ 0.2
4,ETYY,≤ 0.2
5,PWLC,≤ 0.2
6,KENH,≤ 0.2
7,CKHR,≤ 0.2
8,SCWE,≤ 0.2
9,YDKV,≤ 0.2
10,QHVL,≤ 0.2
11,PASA,≤ 0.2
12,GMCN,≤ 0.2
13,PSYE,≤ 0.2
14,NAHP,≤ 0.2
15,AQLF,≤ 0.2
16,LCKG,≤ 0.2
17,AEIR,≤ 0.2
18,KMAG,≤ 0.2
19,IAHV,≤ 0.2
20,LFCC,≤ 0.2
21,KRML,≤ 0.2
22,QPDV,≤ 0.2
23,PDQG,≤ 0.2
